Experimental data from article PMC5892938.
The list shows a part of the results. At the low end of the ranking, values are background and their order means little.

target: GST-SBP-SLBP (stem-loop binding protein) (UniProt Q14493); test: targeted RNA Bind-n-Seq; details: RBNS binding buffer: 25 mM Tris pH 7.5, 150 mM KCl, 3 mM MgCl2, 0.1% Tween, 0.5 mg/mL BSA, 1 mM DTT; 27 nM protein, 750 pM RNA pool; temperature not stated; high values mean tight binding;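 further: DESeq read counts versus GST-SBP nonspecific binding control pulldown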

Sequence	binding signal (log2 fold change)
GGUCACGUCUCAAUCAACUCCAAGGAGGGGGGGAAAACCCCUUUACCCUCAUUCUCAACAGCUCGCAGUCAAG	-0.156
GGUCACGUCUCAAUCAACUCCUAGGAGGGGGGGAAAACCCCUUUACCCUCAACCUCAACAGCUCGCAGUCAAG	-0.192
GGUCACGUCUCAAUCAACUCUACGGAGGGGGGGAAAACCCCUUUACCCUCAAUUUCAACAGCUCGCAGUCAAG	0.215
GGUCACGUCUCAAUCAACUCUUUUCCCAGGGAAACCCCUGGCAUACUCAACAGCUCGCAGUCAAG	0.123
GGUCACGUCUCAAUCAACUCAAAAGAGGGGGGGAAAACCCCUUUGCCCUCACACUCAACAGCUCGCAGUCAAG	0.235
GGUCACGUCUCAAUCAACUCUUCCCCCAGGGAAAACCCUGGCUAACUCAACAGCUCGCAGUCAAG	-0.19
GGUCACGUCUCAAUCAACUCAUCUCCAGGAGUUUACUCCUGUAUAUUCAACAGCUCGCAGUCAAG	0.286
GGUCACGUCUCAAUCAACUCUUCGUCAGGAGUUUCCUCCUGCAAUUUCAACAGCUCGCAGUCAAG	0.129
GGUCACGUCUCAAUCAACUCUUUUCCCAGGGAAAACCCUGGUUAUGUCAACAGCUCGCAGUCAAG	0.132
GGUCACGUCUCAAUCAACUCUUCGUCAGGAGUUUCCUCCUGUUAUCUCAACAGCUCGCAGUCAAG	-0.00914
GGUCACGUCUCAAUCAACUCUUAAGAGGGGGGGAAAACCCCUUUACCCUCCAACUCAACAGCUCGCAGUCAAG	-0.162
GGUCACGUCUCAAUCAACUCUUUCUCCAGGGAAAUCCCUGGUUAUUUCAACAGCUCGCAGUCAAG	-0.133
GGUCACGUCUCAAUCAACUCUUCCUCAGGAGUUUUCUCCUGCAAAUUCAACAGCUCGCAGUCAAG	0.0483
GGUCACGUCUCAAUCAACUCAUCCUCAGGAGUUUGCUCCUGCUAAUUCAACAGCUCGCAGUCAAG	0.274
GGUCACGUCUCAAUCAACUCCCCAGAGGGGGGGAAAACCCCUUUACCCUCCAUGUCAACAGCUCGCAGUCAAG	-0.37
GGUCACGUCUCAAUCAACUCAAGGUCAGGAGUUUUCUCCUGUUUAUUCAACAGCUCGCAGUCAAG	0.15
GGUCACGUCUCAAUCAACUCAUUUCCCAGGGAAAUCCCUGGCUAUUUCAACAGCUCGCAGUCAAG	-0.00533
GGUCACGUCUCAAUCAACUCUCCAGAGGGGGGGAAAACCCCUUUGCCCUCCAUAUCAACAGCUCGCAGUCAAG	-0.00577
GGUCACGUCUCAAUCAACUCAGUCUCAGGAGUUUACUCCUGCUAUCUCAACAGCUCGCAGUCAAG	0.184
GGUCACGUCUCAAUCAACUCAAUUCCAGGAGUUUUCUCCUGCUUAGUCAACAGCUCGCAGUCAAG	0.0293
GGUCACGUCUCAAUCAACUCUUUAGAGGGGGGGAAAACCCCUUUGCCCUCAAUAUCAACAGCUCGCAGUCAAG	0.121
GGUCACGUCUCAAUCAACUCUAAGGAGGGGGGGAAAACCCCUUUACCCUCAUCAUCAACAGCUCGCAGUCAAG	0.486
GGUCACGUCUCAAUCAACUCUACUCCAGGAGUUUACUCCUGCAUUCUCAACAGCUCGCAGUCAAG	-0.129
GGUCACGUCUCAAUCAACUCAAUCUCCAGGGAAAGCCCUGGUUAUCUCAACAGCUCGCAGUCAAG	-0.29
GGUCACGUCUCAAUCAACUCUCCCGAGGGGGGGAAAACCCCUUUGCCCUCAUUUUCAACAGCUCGCAGUCAAG	0.201

Sequence	binding signal (log2 fold change)
GGUCACGUCUCAAUCAACUCUCAAGAGGGGGGGAAAACCCCUUUACCCUCCCAAUCAACAGCUCGCAGUCAAG	-0.135
GGUCACGUCUCAAUCAACUCAUCUUCCAGGGAAACCCCUGGUUUUCUCAACAGCUCGCAGUCAAG	0.0752
GGUCACGUCUCAAUCAACUCUACUUCAGGAGUUUCCUCCUGCAUUCUCAACAGCUCGCAGUCAAG	-0.104
GGUCACGUCUCAAUCAACUCAGUCUCCAGGGAAACCCCUGGCAAUCUCAACAGCUCGCAGUCAAG	-0.0948
GGUCACGUCUCAAUCAACUCUACUCCAGGAGUUUCCUCCUGCAUACUCAACAGCUCGCAGUCAAG	0.0938
GGUCACGUCUCAAUCAACUCUCUAGAGGGGGGGAAAACCCCUUUGCCCUCGAAAUCAACAGCUCGCAGUCAAG	0.342
GGUCACGUCUCAAUCAACUCAAUCCCAGGAGUUUCCUCCUGUAUUCUCAACAGCUCGCAGUCAAG	0.164
GGUCACGUCUCAAUCAACUCUUUCGCAGGAGUUUUCUCCUGGUAUCUCAACAGCUCGCAGUCAAG	0.00473
GGUCACGUCUCAAUCAACUCAAUAGAGGGGGGGAAAACCCCUUUACCCUCCCAAUCAACAGCUCGCAGUCAAG	0.325
GGUCACGUCUCAAUCAACUCUUCCUCAGGAGUUUACUCCUGCAAAUUCAACAGCUCGCAGUCAAG	-0.2
GGUCACGUCUCAAUCAACUCAAUGGCAGGAGUUUUCUCCUGGAAUCUCAACAGCUCGCAGUCAAG	-0.0119
GGUCACGUCUCAAUCAACUCAUCCUCAGGAGUUUUCUCCUGUUUAUUCAACAGCUCGCAGUCAAG	-0.0744
GGUCACGUCUCAAUCAACUCUAUCGAGGGGGGGAAAACCCCUUUACCCUCACAAUCAACAGCUCGCAGUCAAG	0.599
GGUCACGUCUCAAUCAACUCAUCUCCAGGAGUUUACUCCUGUAAUCUCAACAGCUCGCAGUCAAG	0.0247
GGUCACGUCUCAAUCAACUCAUAAGAGGGGGGGAAAACCCCUUUACCCUCGUUCUCAACAGCUCGCAGUCAAG	-0.258
GGUCACGUCUCAAUCAACUCUAUCGAGGGGGGGAAAACCCCUUUGCCCUCAUCAUCAACAGCUCGCAGUCAAG	-0.334
GGUCACGUCUCAAUCAACUCAUAAGAGGGGGGGAAAACCCCUUUACCCUCGUUUUCAACAGCUCGCAGUCAAG	0.117
GGUCACGUCUCAAUCAACUCUCAAGAGGGGGGGAAAACCCCUUUACCCUCAUUUUCAACAGCUCGCAGUCAAG	0.0743
GGUCACGUCUCAAUCAACUCAAUUCCCAGGGAAACCCCUGGCUAAUUCAACAGCUCGCAGUCAAG	-0.0236
GGUCACGUCUCAAUCAACUCCAAAGAGGGGGGGAAAACCCCUUUACCCUCCACAUCAACAGCUCGCAGUCAAG	0.399
GGUCACGUCUCAAUCAACUCAUUUUCCAGGGAAAACCCUGGCGUUUUCAACAGCUCGCAGUCAAG	-0.0554
GGUCACGUCUCAAUCAACUCCUUAGAGGGGGGGAAAACCCCUUUACCCUCCACAUCAACAGCUCGCAGUCAAG	-0.0998
GGUCACGUCUCAAUCAACUCUUUCCCCAGGGAAAUCCCUGGUUUACUCAACAGCUCGCAGUCAAG	0.0469
GGUCACGUCUCAAUCAACUCUACUCCCAGGGAAAACCCUGGUUAUCUCAACAGCUCGCAGUCAAG	0.00217
GGUCACGUCUCAAUCAACUCAUAAGAGGGGGGGAAAACCCCUUUACCCUCACAUUCAACAGCUCGCAGUCAAG	0.135

Sequence	binding signal (log2 fold change)
GGUCACGUCUCAAUCAACUCUAUUUCCAGGGAAAGCCCUGGCAUACUCAACAGCUCGCAGUCAAG	-0.192
GGUCACGUCUCAAUCAACUCUAUCGCAGGAGUUUUCUCCUGGUAUUUCAACAGCUCGCAGUCAAG	0.126
GGUCACGUCUCAAUCAACUCUUUCCCAGGAGUUUCCUCCUGUAAUCUCAACAGCUCGCAGUCAAG	-0.0201
GGUCACGUCUCAAUCAACUCAAUCCCCAGGGAAAGCCCUGGCUUAUUCAACAGCUCGCAGUCAAG	0.295
GGUCACGUCUCAAUCAACUCAUUCUCCAGGGAAAGCCCUGGCAUAUUCAACAGCUCGCAGUCAAG	0.258
GGUCACGUCUCAAUCAACUCUACUUCCAGGGAAAUCCCUGGCAUACUCAACAGCUCGCAGUCAAG	-0.175
GGUCACGUCUCAAUCAACUCAAUCCCAGGAGUUUUCUCCUGCUAAUUCAACAGCUCGCAGUCAAG	-0.113
GGUCACGUCUCAAUCAACUCUUCCUCAGGAGUUUUCUCCUGUUAUGUCAACAGCUCGCAGUCAAG	0.129
GGUCACGUCUCAAUCAACUCAUUUCCCAGGGAAAUCCCUGGCUUACUCAACAGCUCGCAGUCAAG	0.0367
GGUCACGUCUCAAUCAACUCACACGAGGGGGGGAAAACCCCUUUACCCUCUUUCUCAACAGCUCGCAGUCAAG	0.044
GGUCACGUCUCAAUCAACUCAUCGCCAGGAGUUUUCUCCUGCUAUUUCAACAGCUCGCAGUCAAG	0.109
GGUCACGUCUCAAUCAACUCAUCCUCCAGGGAAAACCCUGGUUUACUCAACAGCUCGCAGUCAAG	-0.11
GGUCACGUCUCAAUCAACUCUCUAGAGGGGGGGAAAACCCCUUUGCCCUCCGUUUCAACAGCUCGCAGUCAAG	0.354
GGUCACGUCUCAAUCAACUCAUUUUCAGGAGUUUUCUCCUGCAAUCUCAACAGCUCGCAGUCAAG	-0.134
GGUCACGUCUCAAUCAACUCAGUUCCAGGAGUUUUCUCCUGCAUUCUCAACAGCUCGCAGUCAAG	0.167
GGUCACGUCUCAAUCAACUCUCACGAGGGGGGGAAAACCCCUUUACCCUCAUUCUCAACAGCUCGCAGUCAAG	0.0045
GGUCACGUCUCAAUCAACUCUAUCCCAGGAGUUUCCUCCUGCAAAUUCAACAGCUCGCAGUCAAG	0.253
GGUCACGUCUCAAUCAACUCCCAAGAGGGGGGGAAAACCCCUUUGCCCUCAUCUUCAACAGCUCGCAGUCAAG	-0.256
GGUCACGUCUCAAUCAACUCAUUCUCAGGAGUUUGCUCCUGUUUACUCAACAGCUCGCAGUCAAG	0.269
GGUCACGUCUCAAUCAACUCAAUCCCCAGGGAAAGCCCUGGCUUUCUCAACAGCUCGCAGUCAAG	0.072
GGUCACGUCUCAAUCAACUCUCACGAGGGGGGGAAAACCCCUUUACCCUCAUCCUCAACAGCUCGCAGUCAAG	-0.248
GGUCACGUCUCAAUCAACUCAUUUCCAGGAGUUUUCUCCUGUUAUCUCAACAGCUCGCAGUCAAG	-0.056
GGUCACGUCUCAAUCAACUCUACGCCAGGAGUUUUCUCCUGUAUACUCAACAGCUCGCAGUCAAG	-0.0539
